# This is one part of the list.
# B1: chr7:157269180:157269282:+|3pUTR|ENSG00000009335|unk|FALSE|unique (ssRNA)
# RNA: GGGAGUUCUACAGUCCGACGAUCAUUUUAGGUUGUUUUAUGUUGAAUGUUCUAUAUCUUAUUAGUUAAUUUGUAUAUUUUAUUAGUAUUUUGGAAAUAGCAUAUCUGAGACUGAAGAGAAAUUGACAAUUCACUUAUUUGUGGCAACAGAGGAUUGAGCAUCA
# B2: chr4:56809860:56810169:-|three_prime_utr|ENSG00000128040|control|control|control (ssRNA)
# RNA: GGGAGUUCUACAGUCCGACGAUCCCCUGCUGAUGGAGCAGUUUACAGAAAAGAAGAUGGAGAGACCACCUUCACUGGCAGACUAGAUAAAUUGCAUUUCCCCUUUUUCUCUUUUCCUGUGUUUCUUUACAUGAGAUUUGUUAACAACAGAGGAUUGAGCAUCA
# B3: chr13:106491261:106491362:-|3pUTR|ENSG00000125266|msi1|FALSE|unique (ssRNA)
# RNA: GGGAGUUCUACAGUCCGACGAUCACAAUAAUGAGAGCAAAUGCAAAAAUAACCAAGUCCUCCGAAGGCAUCUCACGGAACCGUAGACUAGGAAGUACGAGCCCCACAGAGCAGGAAGCCGAUGUGACUGCAUCAUAUAUUUAACAACAGAGGAUUGAGCAUCA
# B4: ENSG00000143401:stop:overlap|stop_codon|ENSG00000143401|stop_codon|NA|stop_codon (ssRNA)
# RNA: GGGAGUUCUACAGUCCGACGAUCGUCUUCGAGGGGAGAAGAGGAAACGAGAUGCUGAAGACGAUGGAGAGGAAGAAGAUGACUAGAUCAUUCUAAGACCAGAUUCUCUAAUGUUUCUGGGUGUGCAAUAGAGUGAUCACAUCUCAACAGAGGAUUGAGCAUCA
# B5: chr4:78448087:78448188:+|CDS|ENSG00000138759|msi1|FALSE|unique (ssRNA)
# RNA: GGGAGUUCUACAGUCCGACGAUCGCCUCUGGAGAAUGGGAGAGUUUUAGUCCAGGGCUCAACCUUCACCUACCAGGAUAUCCUAGCUGGGCUGGUUGGGUAUGUGCCUAGUGUCCCUGGCAUGGUCGUGGAUGAGUUCCAGUUCAACAGAGGAUUGAGCAUCA
# B6: chr3:120395571:120395798:-|3pUTR|ENSG00000163430|msi1|total|mutant (ssRNA)
# RNA: GGGAGUUCUACAGUCCGACGAUCUGGUUCUGAUCAUUGGUCCAGAGGGGAGACCGGUUCCUGUGAUUUUUCCUUCUUCUCUACCGAAUAAAUGAAAUCUUGUUACCCGAACAAGAAAUGUCAGAUGGCCAAAAACAAGAUGACCAACAGAGGAUUGAGCAUCA
# Molecular target: MSI1 full-length (mouse, UniProt Q61474 1-362)
# Assay: nsRBNS (natural sequence RNA bind-n-seq); RBNS binding buffer (assumed for nsRBNS): 25 mM Tris pH 7.5, 150 mM KCl, 3 mM MgCl2, 0.01% Triton X-100, 500 ug/ml BSA, 20 U/ml SUPERase-In, 4 C; UNK is unkempt and MSI1 is Musashi-1; names of the RNAs are library labels; protein concentration not given here; high values mean tight binding
# Chain of UniProt Q61474 (Q61474 whole entry): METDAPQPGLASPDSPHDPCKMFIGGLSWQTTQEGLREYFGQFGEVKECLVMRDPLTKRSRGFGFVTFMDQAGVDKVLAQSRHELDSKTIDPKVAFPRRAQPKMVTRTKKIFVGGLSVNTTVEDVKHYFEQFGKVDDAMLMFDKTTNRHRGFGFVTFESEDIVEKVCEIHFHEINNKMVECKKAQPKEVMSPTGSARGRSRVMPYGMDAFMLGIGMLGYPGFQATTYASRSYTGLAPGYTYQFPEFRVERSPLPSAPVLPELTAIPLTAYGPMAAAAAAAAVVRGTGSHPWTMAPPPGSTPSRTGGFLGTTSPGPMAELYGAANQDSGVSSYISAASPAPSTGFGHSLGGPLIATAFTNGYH
row,Binder,binding signal
1,B1,12.7 enrichment R
2,B2,0.55 enrichment R
3,B3,1.47 enrichment R
4,B4,0.54 enrichment R
5,B5,1.33 enrichment R
6,B6,0.289 enrichment R
